Test results as given in paper PMC4336329 (PLoS ONE, 2015).
Among all 310,000 compounds or so, about 14,000 (4.5%) showed an effect of 50% or more. The effect is printed as a negative number. Some of the results follow.

Each molecule was assayed against human ether-à-go-go-related gene (hERG) potassium channel (human, UniProt Q12809) (assay: primary screen, population patch clamp on CHO cells stably expressing hERG).
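Note: peak tail current of the secondary pulse compared with the same well before compound.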

human ether-à-go-go-related gene (hERG) potassium channel, sequence (Q12809 whole entry, looked up): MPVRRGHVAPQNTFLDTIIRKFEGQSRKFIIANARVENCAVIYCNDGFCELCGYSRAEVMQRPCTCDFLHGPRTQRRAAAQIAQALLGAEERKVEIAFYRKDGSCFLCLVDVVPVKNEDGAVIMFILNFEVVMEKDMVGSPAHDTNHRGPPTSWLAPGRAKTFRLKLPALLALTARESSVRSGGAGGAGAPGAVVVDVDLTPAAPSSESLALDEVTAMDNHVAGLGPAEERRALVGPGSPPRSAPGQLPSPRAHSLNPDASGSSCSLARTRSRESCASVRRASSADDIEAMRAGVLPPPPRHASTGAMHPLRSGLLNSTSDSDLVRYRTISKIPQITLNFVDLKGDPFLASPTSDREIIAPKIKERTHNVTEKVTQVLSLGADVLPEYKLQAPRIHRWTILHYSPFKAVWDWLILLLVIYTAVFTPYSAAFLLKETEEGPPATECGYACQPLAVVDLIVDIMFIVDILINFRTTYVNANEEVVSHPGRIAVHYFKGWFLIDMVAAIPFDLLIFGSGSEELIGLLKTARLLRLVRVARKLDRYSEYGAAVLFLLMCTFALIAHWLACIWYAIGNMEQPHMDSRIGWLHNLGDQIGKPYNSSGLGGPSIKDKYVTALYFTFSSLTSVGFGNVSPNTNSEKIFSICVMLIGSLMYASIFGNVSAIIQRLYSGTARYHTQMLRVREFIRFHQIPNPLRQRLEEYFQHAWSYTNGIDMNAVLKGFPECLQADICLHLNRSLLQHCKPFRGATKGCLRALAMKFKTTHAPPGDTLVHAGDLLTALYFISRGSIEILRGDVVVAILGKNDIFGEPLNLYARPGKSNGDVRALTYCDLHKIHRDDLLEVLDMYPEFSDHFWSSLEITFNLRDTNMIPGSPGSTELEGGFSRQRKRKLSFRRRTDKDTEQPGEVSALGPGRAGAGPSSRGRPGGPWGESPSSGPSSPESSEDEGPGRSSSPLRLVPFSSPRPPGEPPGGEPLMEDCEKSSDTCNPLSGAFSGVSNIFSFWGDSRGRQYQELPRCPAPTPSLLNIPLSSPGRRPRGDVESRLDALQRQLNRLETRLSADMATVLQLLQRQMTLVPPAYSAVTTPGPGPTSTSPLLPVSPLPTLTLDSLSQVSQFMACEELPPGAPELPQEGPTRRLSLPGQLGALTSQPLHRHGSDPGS

SMILES	hERG current change (%, negative = inhibition) at 10uM [%]
COc1ccc(NS(=O)(=O)c2ccc(Cl)c(NC(=O)c3cccnc3Cl)c2)cc1	-10.5
CCOc1ccccc1CN1CCNC(=O)C1CC(=O)N(C)Cc1nonc1C (centres unmarked)	8.59
CC(=O)NCCC(=O)Nc1cc(S(=O)(=O)N2CCCCC2)ccc1Oc1cccc(C)c1	-68
COC(=O)CCN1CCC(C(N)=O)CC1	4.35
CCCCC1=CC2=CC(=O)C(C)(OC(=O)C3CCCC3)C(=O)C2=CO1 (centres unmarked)	4.34
O=C(CCCOc1ccccc1)Nc1cccc([N+](=O)[O-])c1	5.78
CN(Cc1ccccc1)c1oc(-c2ccco2)nc1C#N	-29.4
CCOc1cc(S(=O)(=O)n2nc(C)cc2C)ccc1F	-16.4
CC(C)N1CCN(Cc2ccc(C#CCCO)cc2)CC1CCO (centres unmarked)	-5.27
Cl.O=C(O)CCCCCNc1ncnc2ccc(Br)cc12	8.47
COc1ccc(CN(C2CCCCC2C)S(=O)(=O)c2ccc(S(=O)(=O)N(C)C)cc2)cc1OC (centres unmarked)	-7.82
O=C(NCc1ccc2[nH]c3c(c2c1)CCCC3)c1ccc(S(=O)(=O)N2CCOCC2)cc1	0.651
O=C(CCSc1ccccc1)Nc1nccs1	4.16
O=C(CNCCO)N1N=C(c2cccs2)CC1c1cccs1 (centres unmarked)	8.28
CC1(C)NC(=O)N(CC(=O)OCC(=O)NC(=O)c2ccccc2)C1=O	4.15
c1ccc2oc(NC3=NCN(C4CCCCC4)CN3)nc2c1	13.4
CCN1CCN(c2nc3c(C)cccn3c(=O)c2C=C(C#N)C#N)CC1	-15.2
CNC(=S)NC12CC3CC(CC(C3)C1)C2	0.999
CCCCNC(=O)CN1C(=O)NC(Cc2ccccc2)(Cc2ccccc2)C1=O	2.57
Cc1c(NC(=S)NC(=O)CSc2ccc(Cl)cc2)cccc1C(=O)O	2.82
Cc1ccccc1CN1C[C@@H]2C[C@@H](c3cn[nH]c3-c3ccc(F)cc3)N3CCC[C@@]23C1=O	-52.2
CNC(=O)c1cc2c(-c3ccccc3)nn(C)c2s1	1.75

SMILES	hERG current change (%, negative = inhibition) at 10uM [%]
CSCCC(NC(=O)COc1ccccc1)C(=O)N(C)CC(=O)Nc1ccc(Cl)cc1 (centres unmarked)	-41.3
COc1ccc(-c2noc(N3CCC(C(=O)N(C)c4ccccc4)CC3)n2)cc1	-36.1
CC1=NN(C(=O)Cc2ccc([N+](=O)[O-])cc2)C(O)(C(F)(F)C(F)(F)F)C1 (centres unmarked)	-12.4
O=C1C=C(c2cc3ccccc3s2)CCC1	-6.45
CCN(CC)CCCn1c(C)cc2c(c1=O)C(c1cc(OC)c(OC)cc1OC)C(C#N)=C(N)O2 (centres unmarked)	7.99
Cc1cccc(C)c1NC(=O)CN(C)C(=O)c1ccc(-n2cncn2)c([N+](=O)[O-])c1	-6.43
CCC(C)[C@H](NC(=O)N1CCCC1)C(=O)O (some centres unmarked)	12.4
Cc1cccc(CSc2nc3nc(C)cc(C)n3n2)c1	-27.9
O=C(c1ccc(CS(=O)Cc2ccc(Cl)cc2)o1)N1CCN(c2cccc(Cl)c2)CC1 (centres unmarked)	-52.7
CC(Sc1ncc(C(F)(F)F)cc1Cl)C(=O)NCC1CCCO1 (centres unmarked)	-13.7
Cc1cc(C(c2nnnn2Cc2ccccc2)N2CCOCC2)c(C)n1-c1ccc2c(c1)OCO2 (centres unmarked)	-32.1
CCN(CC)c1ccc(/C=N/NC(=O)c2cnccn2)c(O)c1	0.584
Nc1ccc(S(=O)(=O)[N-]c2cnc3ccccc3n2)cc1.[Na+]	-6.28
COc1ccc(-c2nc3nc(C)cc(C)n3n2)cc1	-8.05
COc1cccc(NC(=S)NCc2cccs2)c1	-3.78
O=C(NCCc1nc2ccccc2[nH]1)C1CCC(=O)N(CCc2cccc(F)c2)C1 (centres unmarked)	7.55
COc1ccc(OC)c(S(=O)(=O)NC(C)(C)C)c1	21.5
COc1ccc(CC(=O)Nc2cccc(S(=O)(=O)N3CCOCC3)c2)cc1OC	6.61
Cc1ccc(C)c(OCC(=O)Nc2ccc(S(=O)(=O)N3CCN(C)CC3)cc2)c1	-1.44
CCOc1ccc(CCNC(=O)C2CCCN(c3ncnc4c3nc3n4CCCCC3)C2)cc1 (centres unmarked)	-58.6
Cn1cnc2c1c(=O)n(Cc1cccc(F)c1)c(=O)n2C	12
CSc1ccccc1C(=O)Nc1cccc([N+](=O)[O-])c1	-12
